Positions count from the first letter of the chain named. Names and notes keep the numbering of the source. Results are given in words; binding and its absence hold for the method and conditions named. Some results given as binding are weak or reduced against the parent protein; the word gives no strength.
Tests used:
[1] = biological target: T1, IL-11Δ10/IL-11Rα_(D1-D3)/gp130_(D1-D3) trimer (human) (UniProt P20809+Q14626+P40189); test: SEC-MALS; Zenix-C SEC-300 column, 20 mM Tris, 150 mM sodium chloride pH 8.5, ~2 mg/mL applied; both purified
[2] = biological target: T1, IL-11Δ10/IL-11Rα_(D1-D3)/gp130_(D1-D3) trimer (human); test: AUC; sedimentation velocity, 50,000 rpm, 20 °C, c(s) model with floating frictional ratio (SEDFIT); both purified
[3] = biological target: T1, IL-11Δ10/IL-11Rα_(D1-D3)/gp130_(D1-D3) trimer (human); test: SAXS; in-line size exclusion (Superdex 200 5/150 Increase), TBS pH 8.5, 0.2% sodium azide; fit of models with CRYSOL; both purified
[4] = biological target: T1, IL-11Δ10/IL-11Rα_(D1-D3)/gp130_(D1-D3) trimer (human); test: AUC; sedimentation equilibrium at three speeds, single-species analysis (SEDPHAT), relative molecular mass M*; complexes size exclusion purified before; both purified
[5] = biological target: T1, IL-11Δ10/IL-11Rα_(D1-D3)/gp130_(D1-D3) trimer (human); test: cryo-EM structure; IL-11Δ10/IL-11Rα_(D1-D3)/gp130_(D1-D3) complex, equimolar mix, size exclusion purified in TBS pH 8.0, 0.5 mg/mL on grids; C2 symmetry, 3.5 Å; both purified
[6] = biological target: IL-11FL/IL-11RαEC/gp130_(D1-D3) trimer (human) (UniProt P20809+Q14626+P40189); test: crystal structure; IL-11FL/IL-11RαEC/gp130_(D1-D3) complex, equimolar mix purified by gel filtration, crystals at 20 °C; anisotropic data to 3.8 Å, three hexamers in the asymmetric unit; both purified
IL-11Rα_(D1-D3) (human) [7] = biological target: T2, IL-11Rα_(D1-D3) (human) (UniProt Q14626); test: cryo-EM structure; IL-11Δ10/IL-11Rα_(D1-D3)/gp130EC complex, 1.5 mg/mL, with 1–2 mM n-dodecyl β-D-maltoside, not size exclusion purified; C2 symmetry, 3.8 Å; both purified
T2 sequence (chain, N-linked glycans (N105, N172 seen in the structures)): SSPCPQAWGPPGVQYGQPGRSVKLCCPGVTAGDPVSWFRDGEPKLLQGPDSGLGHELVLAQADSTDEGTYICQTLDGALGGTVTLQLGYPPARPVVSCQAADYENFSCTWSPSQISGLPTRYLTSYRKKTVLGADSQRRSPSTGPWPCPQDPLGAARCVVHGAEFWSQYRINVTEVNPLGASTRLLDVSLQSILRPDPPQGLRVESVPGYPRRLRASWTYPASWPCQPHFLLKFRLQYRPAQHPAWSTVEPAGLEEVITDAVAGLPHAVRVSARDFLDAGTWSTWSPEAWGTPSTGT

IL-11Rα_(D1-D3) (human) [8] = biological target: T2, IL-11Rα_(D1-D3) (human); test: cryo-EM structure; IL-11Δ10/IL-11Rα_(D1-D3)/gp130_(D1-D3) complex, equimolar mix, size exclusion purified in TBS pH 8.0, 0.5 mg/mL on grids; C2 symmetry, 3.5 Å; both purified
[9] = biological target: IL-11_(Δ10/W147A)/IL-11Rα_(D1-D3)/gp130_(D1-D3) trimer (human) (UniProt P20809+Q14626+P40189); test: AUC; sedimentation velocity, 50,000 rpm, 20 °C, c(s) model with floating frictional ratio (SEDFIT); both purified

## IL-11Δ10/IL-11Rα_(D1-D3)/gp130_(D1-D3) trimer (from UniProt P20809 32-199; Q14626 23-319; P40189 22-325) (complex)
[1]
  binding: binds
[2]
  binding: binds
[3]
  binding: binds
[4]
  binding: binds
[5]
  binding: binds

## IL-11FL/IL-11RαEC/gp130_(D1-D3) trimer (from UniProt P20809 22-199; Q14626 24-370; P40189 22-325) (complex)
[6]
  binding: binds

B1: IL-11Δ10 (ligand, human)
chain: SPDPRAELDSTVLLTRSLLADTRQLAAQLRDKFPADGDHNLDSLPTLAMSAGALGALQLPGVLTRLRADLLSYLRHVQWLRRAGGSSLKTLEPELGTLQARLDRLLRRLQLLMSRLALPQPPPDPPAPPLAPPSSAWGGIRAAHAILGGLHLTLDWAVRGLLLLKTRL
notes: numbers count on: the mature protein; also called N-terminally truncated form of IL-11; WT IL-11Δ10; not shown: His6, N-terminal, cleaved
IL-11Rα_(D1-D3) (human) [7]
  binding: binds
IL-11Rα_(D1-D3) (human) [8]
  binding: binds

B2: IL-11_(Δ10/W147A)/IL-11Rα_(D1-D3)/gp130_(D1-D3) trimer (complex, human)
chain 1: B1 chain with W137A
chain 2: T2 sequence (chain, N-linked glycans (N105, N172 seen in the structures))
chain 3: GELLDPCGYISPESPVVQLHSNFTAVCVLKEKCMDYFHVNANYIVWKTNHFTIPKEQYTIINRTASSVTFTDIASLNIQLTCNILTFGQLEQNVYGITIISGLPPEKPKNLSCIVNEGKKMRCEWDGGRETHLETNFTLKSEWATHKFADCKAKRDTPTSCTVDYSTVYFVNIEVWVEAENALGKVTSDHINFDPVYKVKPNPPHNLSVINSEELSSILKLTWTNPSIKSVIILKYNIQYRTKDASTWSQIPPEDTASTRSSFTVQDLKPFTEYVFRIRCMKEDGKGYWSDWSEEASGITYEDR
[9]
  binding: binds weakly

B3: gp130EC (receptor, human, UniProt P40189 23-619, looked up)
chain: ELLDPCGYISPESPVVQLHSNFTAVCVLKEKCMDYFHVNANYIVWKTNHFTIPKEQYTIINRTASSVTFTDIASLNIQLTCNILTFGQLEQNVYGITIISGLPPEKPKNLSCIVNEGKKMRCEWDGGRETHLETNFTLKSEWATHKFADCKAKRDTPTSCTVDYSTVYFVNIEVWVEAENALGKVTSDHINFDPVYKVKPNPPHNLSVINSEELSSILKLTWTNPSIKSVIILKYNIQYRTKDASTWSQIPPEDTASTRSSFTVQDLKPFTEYVFRIRCMKEDGKGYWSDWSEEASGITYEDRPSKAPSFWYKIDPSHTQGYRTVQLVWKTLPPFEANGKILDYEVTLTRWKSHLQNYTVNATKLTVNLTNDRYLATLTVRNLVGKSDAAVLTIPACDFQATHPVMDLKAFPKDNMLWVEWTTPRESVKKYILEWCVLSDKAPCITDWQQEDGTVHRTYLRGNLAESKCYLITVTPVYADGPGSPESIKAYLKQAPPSKGPTVRTKKVGKNEAVLEWDQLPVDVQNGFIRNYTIFYRTIIGNETAVNVDSSHTEYTLSSLTSDTLYMVRMAAYTDEGGKDGPEFTFTTPKFAQGEIE
modifications: N-linked glycans (N21, N61, N135 seen in the structures)
notes: Secreted with a honeybee-melittin signal peptide; D5-D6 are not in the deposited model 8DPT; also called complete extracellular domains of gp130; D1-D6 domains of gp130; not shown: His8, N-terminal, cleaved
IL-11Rα_(D1-D3) (human) [7]
  binding: binds
